Where “and” joins values, the source holds several entries; their conditions need not be identical. Identical values can stand only once. Screen size: about 340,000 compounds; about 530 (0.16%) were called active. Inconclusive results, whose numbers are uncertain, are shown with a selection of clear calls. Cut-off read from the data, not from the text of the source: active = activity change below about -80%; inconclusive = between about -30% and that limit; inactive = weaker than that.
Test: Small Molecules that selectively kill Giardia lamblia: qHTS;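 note: parasites exposed to compound for two days anaerobically before the ATP read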
Settings: Giardia lamblia trophozoite viability; at 7.66 µM; active compounds read low
How it was run: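 Giardia trophozoites, 100 cells per well, were exposed to compounds for 48 hrs at 37 deg C under anaerobic conditions; viability was then read as ATP content by bioluminescence after 15-30 min at room temperature.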
% is set by controls: 0 for no effect and ±100 for the full control effect.

Compound | activity change
COc1ccc(Cl)c2sc(N(CCN(C)C)C(=O)CCS(=O)(=O)c3ccc(C)cc3)nc12 | inconclusive: -31.4% [inhibitor]
O=C(N=c1nc2ccccn2s1)c1ccccc1 | inconclusive: -31.7% [inhibitor]
COc1cc2c(cc1NC(=O)c1cccc([N+](=O)[O-])c1C)oc1ccccc12 | inactive: 8.9%
C/C(=N\NC(=O)C(N)=O)c1cccc([N+](=O)[O-])c1 | inconclusive: -37.6% [inhibitor]
Oc1ccccc1CNc1ncc(Br)cc1Br | inconclusive: -35.6% [inhibitor]
COC(=O)C1=C(C)NC(=O)NC1c1ccc2c(c1)OCO2 (configuration not stated) | inconclusive: -43% [inhibitor]
COc1ccc(C)cc1NC(=S)NC(C)c1ccc(OC)c(OC)c1 (configuration not stated) | inconclusive: -33.9% [inhibitor]
Cc1cccc(NC(=O)C(=O)NCCc2c[nH]c3ccccc23)c1C | inactive: 7.72%
Cc1ccccc1-c1nc(CS(=O)(=O)CC(=O)NCCCN2CCN(C)CC2)c(C)o1 | inconclusive: -33.9% [inhibitor]
Cc1cc(=O)oc2cc(OCC(=O)N3CCN(C(=O)C4COc5ccccc5O4)CC3)c(Cl)cc12 (configuration not stated) | inconclusive: -39.3% [inhibitor]
COc1ccc(-n2cc3c(-c4cccc(Br)c4)nnc(C)c3n2)cc1 | inconclusive: -31.9% [inhibitor]
CCCCn1c(-c2csc(C(C)C)c2)n[nH]c1=S | inconclusive: -35.3% [inhibitor]
CCCCOc1ccc(/C(O)=C2/C(=O)C(=O)N(CCCOC)C2c2ccncc2)cc1 (configuration not stated) | inactive: 1.03%
CCCCCOc1ccc(Br)cc1CSC(=N)N | inactive: 4.89%
COCC(=O)N1CCC(Oc2ccc(C(=O)N3CCSCC3)cc2)CC1 | inconclusive: -30.7% [inhibitor]
COCC(=O)N=Nc1c(O)[nH]c2ccccc12 | inconclusive: -31% [inhibitor]
COc1cccc(NC(=O)c2ccc3c(c2)OCCO3)c1 | inconclusive: -65.6% [inhibitor]
COc1cccc(NC(=O)c2ccc3c(c2)CCCC3)c1 | inconclusive: -46.5% [inhibitor]
O=c1[nH]c(/C=C/c2ccc(Br)cc2)nc2ccccc12 | inconclusive: -63.1% [inhibitor]
Cc1ncc([N+](=O)[O-])n1CCOC(=O)C12CC3CC(CC(C3)C1)C2 | inconclusive: -74.8% [inhibitor]
O=C(NCCc1ccc(F)cc1)C1CCCCC1 | inactive: 5.01%
O=C(Nc1ccc(Cl)cc1C(=O)NCCN1CCOCC1)c1ccc(Cl)cc1Cl | inactive: -7.01%
Cc1ccc(S(=O)(=O)c2ncccc2[N+](=O)[O-])cc1 | inconclusive: -33.2% [inhibitor]
COc1ccc(-c2cc(C(=O)O)c3c(C)nn(-c4ccccn4)c3n2)cc1 | inactive: -8.98%
CC(C)(C)SCCNC(=O)/C=C/c1ccc(F)cc1 | inconclusive: -33.4% [inhibitor]
CCC(CO)Oc1cc(NC(=O)c2cccc(OC)c2)c2ncn(C(C)C)c2c1 (configuration not stated) | inconclusive: -38.4% [inhibitor]

Compound | activity change
CCOC(=O)C(C)Sc1nc(-c2ccco2)cc(C(F)(F)F)c1C#N (configuration not stated) | inactive: 17%
Cc1ccc(NC(=O)c2cnn(-c3ccccc3)c2C)cc1 | inconclusive: -42.1% [inhibitor]
C[C@H](CO)N1C[C@H](C)[C@@H](CN(C)S(=O)(=O)c2cn(C)cn2)Oc2c(NC(=O)Nc3ccc4c(c3)OCO4)cccc2C1=O | inconclusive: -41.1% [inhibitor]
CC1(CO)COC2(OC1)C(=O)Nc1ccccc12 (configuration not stated) | inactive: 8.23%
Cc1ccc(C(=O)NC(=S)NCc2cccnc2)cc1 | inconclusive: -30.7% [inhibitor]
CC(=O)N1C(=O)/C(=C2\SC(=S)N(NC(=O)c3ccc(O)cc3)C2=O)c2ccccc21 | inconclusive: -31.1% [inhibitor]
Cc1cc(S(=O)(=O)Nc2nc(CN3CCOCC3)nc3sc4c(c23)CCCC4)ccc1F | inactive: 4.49%
OC1C(O)C(O)C(O)C(O)C1O (configuration not stated) | inactive: -20.7% and inactive: 18.2% and inactive: -10.5%
S=c1[nH]c2ccccc2n2c(=S)[nH]nc12 | inconclusive: -43% [inhibitor]
Cc1cc(C)nc(NC(=O)c2ccc([N+](=O)[O-])o2)n1 | inconclusive: -58.2% [inhibitor]
COc1ccc(Cc2nc3ccc(C(=O)N4CCN(C)C(C)C4)cc3o2)cc1OC (configuration not stated) | inconclusive: -39.5% [inhibitor]
COc1cc(SC)ccc1C(=O)Nc1ccc(OCC(=O)N2CCOCC2)cc1 | inconclusive: -69.5% [inhibitor]
Cc1ccccc1C(=O)N1CCN(c2ccc(NC(=S)NC(=O)c3ccco3)cc2)CC1 | inconclusive: -33.1% [inhibitor]
COc1ccc(C(=O)Nc2ccc3c(c2)nc(CCNC(=O)c2ccco2)n3C)cc1 | inactive: -29.9%
CCN(CC)CCOC(=O)c1ccc(N/C=C(/C#N)c2nc(-c3ccc(OC)c(OC)c3)cs2)cc1 | inconclusive: -42.4% [inhibitor]
COc1ccc(C(=O)OCC(=O)c2ccc(C3CCCCC3)cc2)cc1 | inconclusive: -32.4% [inhibitor]
COc1ccc(NC(=O)COC(=O)c2cccc(S(=O)(=O)N(C)C)c2)cc1 | inconclusive: -36.4% [inhibitor]
Oc1ccc(-c2cn3c(n2)SCC3)cc1O | inconclusive: -40.6% [inhibitor]
Cc1ccc(-c2nnc(Nc3ccc(CC(N)=O)cc3)c3ccccc23)cc1 | inactive: 1.74%
CN(CC(=O)N(CCO)Cc1ccccc1)S(=O)(=O)c1ccc2c(c1)c(=O)n(C)c(=O)n2C | inconclusive: -31.6% [inhibitor]
COc1cc(C2(c3ccc(O)c(OC)c3)C(=O)N(C)c3ccc(C)cc32)ccc1O | inactive: 0.533%
Fc1ccccc1CSc1nc2ccccc2[nH]1 | inconclusive: -37% [inhibitor]
NC(=O)c1cccc(C(N)=O)n1 | inconclusive: -40.5% [inhibitor]
O=C(CCCn1cnc([N+](=O)[O-])n1)Nc1cccc(Cl)c1Cl | inconclusive: -70.8% [inhibitor]
CCOc1cc(CNc2ccc(S(N)(=O)=O)cc2)ccc1OCC(=O)NC(C)(C)C | inconclusive: -30.6% [inhibitor]
Cc1cnc([N+](=O)[O-])n1CCOC(=O)NC(=O)c1ccc(F)cc1 | inconclusive: -65.5% [inhibitor]

Compound | activity change
Cc1ccc(C(C)C)c(OCc2nn(CC(=O)c3ccc(Cl)cc3)c3[n+]2CCCCC3)c1 | inactive: -7.5%
O=[N+]([O-])c1ccccc1C1Nc2cccc3cccc(c23)N1 | inconclusive: -38.7% [inhibitor]
COc1ccc2cc(C(=O)C3CCCN(C(=O)c4snnc4C)C3)ccc2c1 (configuration not stated) | inconclusive: -34.7% [inhibitor]
CC(C)(C)OC(=O)N[C@H](C(=O)OC(C)(C)C)c1ccc(Br)cc1 | inconclusive: -36.7% [inhibitor]
Cc1nc(NCCOc2ccccc2)sc1C(=O)Nc1ccccc1 | inconclusive: -32.6% [inhibitor]
O=C(Nc1ccccc1C(=O)N1CCCCC1)c1ccc(Cl)cc1Cl | inconclusive: -32.4% [inhibitor]
O=C1CC(c2ccco2)Sc2nc3ccccc3n21 (configuration not stated) | inactive: -7.3%
CCC1C(=O)N=C(SCC(=O)Nc2ccc(Br)cn2)NC1=O (configuration not stated) | inconclusive: -35.3% [inhibitor]
Cc1ccc(C(=O)NC(=O)OCCn2c(C)cnc2[N+](=O)[O-])cc1 | active: -87.7%
CCCC(=O)N1CCN(c2ccc(NC(=O)c3ccc([N+](=O)[O-])o3)cc2Cl)CC1 | active: -81.8%
Cc1ccc(S(=O)(=O)N2[C@@H](c3ccc(F)cc3)C(C(=O)O)=CC[C@H]2c2cccc(Cl)c2)cc1 | inconclusive: -37.8% [inhibitor]
Cc1ccc(OCC(=O)Nc2ccc(S(=O)(=O)Nc3ccccn3)cc2)c(C)c1 | inconclusive: -32.2% [inhibitor]
COC(=O)Cc1ccc(NC(=S)Nc2cccc(C)n2)cc1 | inactive: 6.14%
Cc1ccccc1CN1CCN(Cc2cc3ccccc3o2)CC1CCO (configuration not stated) | inconclusive: -40.5% [inhibitor]
CS(=O)(=O)N1CCCC(C(=O)Nc2ccc(F)c(F)c2)C1 (configuration not stated) | inactive: 2.98%
CC(C)CNC(=S)NC(=O)c1csc([N+](=O)[O-])c1 | active: -86.9%
Cc1ccc(C)c(S(=O)(=O)Nc2ccc(C(=O)NCCCN3CCOCC3)cc2)c1 | inconclusive: -41.9% [inhibitor]
c1ccc(-c2cc3cc4c(cc3cn2)OCO4)cc1 | inactive: -5.67%
COc1cc(CC(=O)OCC(=O)Nc2ccccc2C#N)cc(OC)c1OC | inconclusive: -39.6% [inhibitor]
O=C(CCc1ccc(Oc2cc([N+](=O)[O-])cc([N+](=O)[O-])c2)cc1)NC1CCCC1 | inconclusive: -32.1% [inhibitor]
Cc1cc2ccccn2c1C(=O)c1ccc([N+](=O)[O-])o1 | inconclusive: -68.1% [inhibitor]
CCN(CC)c1ccc(C2Nc3cccc4cccc(c34)N2)cc1 | inactive: -3.31%
O=c1cc(-c2ccc(O)cc2)oc2ccc3ccccc3c12 | inconclusive: -62.6% [inhibitor]
O=C(O)c1cccc(NC(=S)NC(NC(=O)c2ccccc2[N+](=O)[O-])C(Cl)(Cl)Cl)c1 (configuration not stated) | inconclusive: -62.5% [inhibitor]
CCOc1ccc(NC(=O)Nc2cccc(C(=O)O)c2)cc1 | inconclusive: -68.4% [inhibitor]

From PubChem BioAssay AID540267 (National Center for Advancing Translational Sciences (NCATS), 2011)
